Measurements from PubChem BioAssay AID488969 (Vanderbilt High Throughput Screening Facility, 2010).
Whole data set: some 110,000 compounds, median “z-score” near -0.1, cut for the highest 2% near 2. Some of the results follow. Calls of active or inactive are those of the source.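 How the source made its calls: active means z-score in the third read window above 3 or below -3; inactive means the rest.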

Molecular target: Metabotropic glutamate receptor 8 (Rattus norvegicus) (UniProt P70579)
Experiment: mGluR8 Gi/Go-coupled signaling modulation – cell-based, rat, thallium flux, HTS, primary screen (AID 488969)
Conditions: HEK293 rat mGluR8, GIRK (G protein-gated inwardly rectifying potassium channel) thallium flux, FluoZin2; at 10 µM; stronger effect = higher value; submaximal glutamate (EC20) added with thallium

Sequence of UniProt P70579 (P70579 whole entry, looked up): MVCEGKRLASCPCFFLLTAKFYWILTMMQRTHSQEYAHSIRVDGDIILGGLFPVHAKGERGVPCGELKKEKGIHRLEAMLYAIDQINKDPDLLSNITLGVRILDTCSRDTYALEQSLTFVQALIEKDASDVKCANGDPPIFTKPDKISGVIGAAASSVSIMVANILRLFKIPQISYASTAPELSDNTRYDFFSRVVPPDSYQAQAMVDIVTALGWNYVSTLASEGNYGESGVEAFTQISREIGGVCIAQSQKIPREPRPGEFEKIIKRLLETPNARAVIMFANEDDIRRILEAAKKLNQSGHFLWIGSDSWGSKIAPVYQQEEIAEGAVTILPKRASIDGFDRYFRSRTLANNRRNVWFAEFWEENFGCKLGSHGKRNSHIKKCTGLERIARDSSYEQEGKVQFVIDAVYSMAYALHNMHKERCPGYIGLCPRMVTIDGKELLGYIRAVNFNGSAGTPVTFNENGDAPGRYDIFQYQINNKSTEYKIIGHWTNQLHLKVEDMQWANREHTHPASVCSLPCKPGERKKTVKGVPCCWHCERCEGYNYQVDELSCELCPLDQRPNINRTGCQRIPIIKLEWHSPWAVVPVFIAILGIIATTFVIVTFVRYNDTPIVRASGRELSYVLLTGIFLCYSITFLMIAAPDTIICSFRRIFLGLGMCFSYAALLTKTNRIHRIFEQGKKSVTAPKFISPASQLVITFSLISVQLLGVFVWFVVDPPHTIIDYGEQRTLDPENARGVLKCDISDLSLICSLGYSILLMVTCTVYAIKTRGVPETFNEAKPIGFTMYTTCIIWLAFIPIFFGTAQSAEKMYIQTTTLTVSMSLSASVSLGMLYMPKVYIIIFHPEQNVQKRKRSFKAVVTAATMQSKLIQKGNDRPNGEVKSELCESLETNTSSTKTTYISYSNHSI

| SMILES | z-score |
| --- | --- |
| Cc1ccc(N2C(N)=C(C#N)C(c3ccsc3)C3=C2CC(C)(C)CC3=O)cc1 (centres undefined) | -1.49 |
| O=C(N/N=C/c1ccc(O)cc1O)/C(=C/c1ccccc1)CCO | -0.185 |
| NC(=O)C1CCN(C(c2ccccc2F)c2nnnn2Cc2ccco2)CC1 (centres undefined) | -0.176 |
| Cc1nc2ccc(Cl)cc2c(-c2ccccc2)c1CC(=O)O | -0.401 |
| CC(C)CN1CN(S(=O)(=O)c2cccs2)c2nc3ccccc3nc21 | -0.233 |
| CC1(C)C(=O)OC(c2cc(Br)ccc2O)C(C)(C)C1=O (centres undefined) | -0.0999 |
| CCOC(=O)c1cc(-c2ccccc2)sc1NC(=O)C(C)Sc1nnc(C)s1 (centres undefined) | -0.22 |
| COc1ccc(NC(=O)C(=O)NNC(=O)c2cccs2)cc1 | active: 7.11 |
| Cn1cc([N+](=O)[O-])c(C(=O)Nc2ccn(C34CC5CC(CC(C5)C3)C4)n2)n1 | -0.12 |
| ONC(=Nc1ccccc1)c1ccc(Cl)cc1 | -0.273 |
| O=C(NCc1ccc2c(c1)OCO2)c1c(O)c2cccc3c2n(c1=O)CCC3 | -0.541 |
| CC(=O)CSc1ncnc2c1oc1ccccc12 | -0.216 |
| Cc1ccccc1OCC(=O)N/N=C1\CCOc2c(C)cccc21 | 0.419 |
| Cc1ccc(N(Cc2cc3ccccc3[nH]c2=O)C(=O)c2ccco2)c(C)c1 | -1.7 |
| CCOc1c2ccc(C(=O)NCc3ccc4c(c3)OCO4)cc2nn1CC | -0.189 |
| CCCCOc1ccc(C(=O)N/C(=C/C=C/c2ccccc2)C(=O)NCCCO)cc1 | 0.0598 |
| COc1ccc(OC)c(C(=O)c2ccc(C(=O)O)cc2)c1 | -0.533 |
| CNC(=O)CSc1nnc(-c2cccs2)o1 | -0.159 |
| COc1cccc(OC)c1C(=O)N1CCN(Cc2ccncc2)CC1 | -0.302 |
| Cc1nc2sc(C(c3ccco3)N3CCc4ccccc4C3)c(O)n2n1 (centres undefined) | 0.00916 |
| O=C(CSc1ncccc1-c1nc2ccccc2[nH]1)N1CCc2ccccc21 | -0.179 |
| CCN(CCO)C(=O)C12CCC(C)(C(=O)C1)C2(C)C (centres undefined) | -0.246 |
| Cc1cc(Cl)ccc1OCC(=O)Nc1nc(-c2cccs2)cs1 | 0.213 |
| c1cncc(-c2nnc(SCCSc3nnc(-c4cccnc4)o3)o2)c1 | 1.14 |
| CC(=O)NNC(=S)NC(=O)c1cccc([N+](=O)[O-])c1 | -0.0668 |

| SMILES | z-score |
| --- | --- |
| Cc1cccc(NC(=O)c2sc3nc(-c4ccc(F)cc4)cn3c2C)n1 | -0.613 |
| CCC(CC)NC(=O)c1cc([N+](=O)[O-])ccc1N1CCOCC1 | -0.182 |
| CSc1nc2[nH]ncc2c(=O)[nH]1 | -0.284 |
| Cc1ccccc1NC(=O)c1csc2c1CCCC2 | -0.435 |
| N#CC1=C2SCC(O)(c3ccccc3)N2C(=O)CC1c1ccccc1 (centres undefined) | -1.02 |
| CSc1ccccc1-n1nnnc1SCC(=O)NCc1cccs1 | -0.276 |
| C=CCOc1ccc2ccccc2c1CNCCCN1CCOCC1 | -1.52 |
| Cc1cc(C)c(NC(=O)CSc2nc(COc3ccccc3)nc3ccccc23)c(C)c1 | -0.261 |
| CCn1c(=O)n(CC)c2cc(S(=O)(=O)N3CCC(c4ccccc4)CC3)ccc21 | 0.0475 |
| O=C(NCc1cccc(Cl)c1)c1cnn2c1NC(c1ccco1)CC2C(F)(F)F (centres undefined) | -0.766 |
| C=C(C)Cn1c(SCC#N)nc2ccccc2c1=O | -0.836 |
| O=C(NCc1ccco1)C12CN(Cc3ccccc3)CC1C(c1ccc([N+](=O)[O-])cc1)=NO2 (centres undefined) | -0.391 |
| CCCc1nnc(NC(=O)Cn2c(=O)oc3ccccc32)s1 | 0.508 |
| COCCCNC(=O)c1cccs1 | -0.314 |
| O=C(Nc1ccccc1)c1ccccc1NC(=O)C(F)(F)F | -0.777 |
| N#Cc1ccc(N=c2ssnc2Cl)cc1 | -0.00472 |
| C=CCNC(=O)NC(=O)COn1nnc2ccc(S(=O)(=O)N(C)C)cc21 | -0.0477 |
| CCOc1ccc(-c2nc(N)ncc2Oc2ccccc2Br)c(O)c1 | -0.0325 |
| O=C1C=C(c2ccc(Cl)cc2)OC2(CCCC2)O1 | -0.366 |
| COC(=O)CSc1nc(-c2ccccc2)nc2ccc(F)cc12 | -0.132 |
| CCCCNC(=S)Nc1cccc2cnccc12 | -0.208 |
| O=C(NCc1cccs1)C(NS(=O)(=O)c1cccc2nsnc12)c1ccccc1 (centres undefined) | 1.17 |
| Cc1cc(Cl)ccc1Oc1nccc(N(C)C)c1C#N | -0.182 |
| COCCNC(=O)c1ccc(C)c(S(=O)(=O)Nc2ccc(C)cc2)c1 | 0.283 |
| COc1ccc(C2(CNC(=O)c3ccco3)CCOCC2)cc1 | -0.0562 |

| SMILES | z-score |
| --- | --- |
| CCOC(=O)CSC1=C(C#N)C(c2sccc2C)CC(=O)N1 (centres undefined) | -0.184 |
| COc1ccccc1OCCNc1cc(N2CCOCC2)ccc1[N+](=O)[O-] | 1.94 |
| O=C(NC(=S)Nc1ccc(Cc2ccncc2)cc1)c1ccccc1Cl | -0.459 |
| CC(=O)Nc1ccc2nc(C)n(Cc3ccc(Cl)cc3)c(=O)c2c1 | -0.376 |
| c1ccc(-c2csc(N3CCCCCC3)n2)cc1 | 0.299 |
| CN(CCOC(=O)c1ccc2c(c1)OCCO2)C(C)(C)C | 0.228 |
| CC(CN1CCN(C)CC1)OC(=O)c1ccccc1 (centres undefined) | -0.2 |
| CC(=O)Nc1cccc(NC(=O)CCn2c(=O)sc3ccccc32)c1 | -0.759 |
| Cc1cc(C)c2c(-n3cccc3)nn(CC#N)c2n1 | -0.306 |
| COc1ccc(C(=O)CSc2nnc(CN3CCCCC3)n2-c2ccc(F)cc2)cc1OC | -0.157 |
| O=C(/C=C/Nc1ccc(F)c(F)c1)c1cccs1 | 1.32 |
| Cc1ccnc(NC(=O)CN(C)S(=O)(=O)c2cccc3nsnc23)c1 | -0.106 |
| NC(CSS(=O)(=O)O)=NCCC12CC3CC(CC(O)(C3)C1)C2 | -0.0219 |
| Nc1ncnc2nc(SCCN3CCCCC3)[nH]c12 | -0.372 |
| CCn1ncc(C2=NOC(C(=O)Nc3cnn(C45CC6CC(CC(C6)C4)C5)c3)C2)c1C (centres undefined) | 0.247 |
| O=C(c1cc(-c2ccccn2)nc2c(Cl)cccc12)N1CCN(S(=O)(=O)c2ccccc2)CC1 | -0.401 |
| N#CC1=C(N)Oc2cc(Nc3ccccc3)ccc2C1c1ccncc1 (centres undefined) | -0.0347 |
| CCOC(=O)/C(C#N)=C/c1c(OCC)n(CC)c2ccccc12 | -0.644 |
| O=C(NCCCN1CCCC1=O)c1csc2ccccc12 | -0.114 |
| CCN1CCN(C(c2cccs2)C(C)NC(=O)CC(C)C)CC1 (centres undefined) | -0.418 |
| O=C(CSc1nc2ccc([N+](=O)[O-])cc2[nH]1)NC1CCCCC1 | -0.124 |
| Cc1cc(C(=O)Nc2ccccc2)oc1C | -0.0105 |
| COc1cc(OC)c(NC(=S)Nc2cccc(C)c2)cc1Cl | -0.267 |
| O=C(N1CCOCC1)N1CCN(C(c2ccccc2)c2ccccc2)CC1 | -0.304 |
